± gives the standard deviation. The entries are a selection whose mix differs from that of the whole data set. A value given as a limit tells only on which side of the number the result lay.

The test system of the assay is MIWI (PIWIL1) piRISC loaded with piRNA #1 (30 nt). As to the kind of experiment: pre-steady-state target cleavage rate (min^-1); MIWI and MILI are mouse PIWI proteins and EfPiwi is from a freshwater sponge; tags in brackets are library labels; higher = faster piRNA-guided slicing of the target. To be noted: guide: piRNA #1 5'p-UGAGGUAGUAGGUUGUAUAGUAUCCAGAGG; auxiliary factor: 500 nM mouse GTSF1. In outline: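 Using HEPES–potassium acetate buffer at 33 °C, 1 nM active affinity-purified piRISC with a single synthetic guide was mixed with 0.1 nM transcribed, DNA-blocked target RNA library for 0–8 or 0–960 min, with or without 500 nM GTSF1 partner protein. Uncleaved targets were sequenced and normalised to depth and to weakly complementary targets, and three trials were pooled with k3 capped at 0.0001 min^-1. A burst-and-steady-state fit gave the pre-steady-state cleavage rate.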
In the case of GGACUCGAUACUAUACAACCUACUUCCUCA, the “pre-steady-state target cleavage rate” value stood at 0.0113 ± 0.0038. GGAGACCUAACUAUACAACCUACUACGCUCA: the “pre-steady-state target cleavage rate” value was 0.916 ± 0.1. For GGAGACGAUACUAUAAACCUACUACCUCA the value was 0.883 ± 0.11. For GGAGACCUAUGAUAUGUACACUACUACCUCA the value was 0.00293 ± 0.0026. As to GCUCUGGAUACUAUACACCUACUACCUCA, the “pre-steady-state target cleavage rate” value is 0.291 ± 0.032. GGUCUGGUUACUAUACUACCUACUACCUCA: the “pre-steady-state target cleavage rate” value worked out at 1.5 ± 0.12.

Turning to GGAGACCUAACUAUACAACCUACUACCUGA, the “pre-steady-state target cleavage rate” value stood at 0.595 ± 0.081. For the sequence GGAGACGAUACUAUACAACCUUACUACCUCA, the “pre-steady-state target cleavage rate” value was determined as 0.00534 ± 0.0031.

As to GGACUGGAUCCUAUACAACCUACUACCUCA, the “pre-steady-state target cleavage rate” value was 1.87 ± 0.19. As for GGAGAGGAUACUCUACAACCUACUACCUCA, the “pre-steady-state target cleavage rate” value was 1.57 ± 0.067. Consider GGAGACGAUACUAUACUACCUACUACCUCA, for which the “pre-steady-state target cleavage rate” value worked out at 1.33 ± 0.075. For GGAGACCAUACUAUACAACCUAUCUACCUCA, the “pre-steady-state target cleavage rate” value was found to be 0.163 ± 0.017. As for CCUCUGGUUACAAUACAACCUACUACCUCA, the “pre-steady-state target cleavage rate” value stood at 2.15 ± 0.13. For GGAGACCUAACUAUACAACCUAGAACCUCA, the “pre-steady-state target cleavage rate” value amounted to 0.00779 ± 0.0042. GGUCUGGAUACUUUACAACCUACUACCUCA: the “pre-steady-state target cleavage rate” value came out at 1.76 ± 0.11.

GGAGUGGAUACUAUUCAACCUACUACCACA: the “pre-steady-state target cleavage rate” value is 0.431 ± 0.039.

As for GGAGUGGAUACAUAUACAACCUACUACCUCA, the “pre-steady-state target cleavage rate” value was determined as 1.31 ± 0.081.

For the sequence GGAGAGGAUACUAUCAACCUACUACCUCA, the “pre-steady-state target cleavage rate” value stood at 1.31 ± 0.085.

Turning to GGACUGGAUACUAUACAACCUACUACCUGA, the “pre-steady-state target cleavage rate” value was determined as 0.57 ± 0.12.

Take GGAGAGGAUAUUAUACAACCUACUACCUCA: the “pre-steady-state target cleavage rate” value turned out to be 1.12 ± 0.062.

In the case of GCACUGGAUACUAUACAACCUACAACCUCA, the “pre-steady-state target cleavage rate” value stood at 0.591 ± 0.049. As to “GGAGACCAUACUAUACAACCUACUACCUCG [g2:g23:cont:t1G]”, the “pre-steady-state target cleavage rate” value turned out to be 1.52 ± 0.081. For GGAGACGAUACUAUACAUCCAACUACCUCA the value was 0.0968 ± 0.012; for GGUCUGGAUACUAUACAACCUACAAGCUCA, 0.00458 ± 0.0032; for GGAGUGCGAUACUAUACAACCUACUACCUCA, 1.7 ± 0.096. In the case of GCUCUGGAUACUAUACAACCUACUACUUCA, the “pre-steady-state target cleavage rate” value came to 2.26 ± 0.14.

With GGAGACCUUUCAAUACAACCUACUACCUCA, the “pre-steady-state target cleavage rate” value was 0.086 ± 0.025. For GGAGACGAUACUAUACAACCUACUACCCCA the value was 0.769 ± 0.083. For GGAGUGGAUACUAUACUACCUAGUACCUCA, the “pre-steady-state target cleavage rate” value worked out at 0.283 ± 0.04. As for CCUCUGGAUACUAUACAACCUACUACCCA, the “pre-steady-state target cleavage rate” value turned out to be 0.602 ± 0.062.

In the case of CCUCUGGAUACUAUAGAACCUACUACGUCA, the “pre-steady-state target cleavage rate” value amounted to 0.694 ± 0.071.

As for GGAGACGAUACUAUACAACCUUGAACCUCA, the “pre-steady-state target cleavage rate” value was 0.00705 ± 0.0029. The figure for GGAGACCUAUGAUAACAACGAUCUACCUCA is < 0.0001; for GGAGACCUAUGUUUACAACGUACUACCUCA it is 0.00344 ± 0.0033. With GGAGACCUAUGUAUGACAACCUACUACCUCA, the “pre-steady-state target cleavage rate” value was found to be 0.00373 ± 0.0037.

Turning to GCUCUGGAUACUAUACAAGGUACUACCUCA, the “pre-steady-state target cleavage rate” value came to 0.488 ± 0.036. Regarding CCUCUGGAUACUAUACAACCAACUACGUCA, the “pre-steady-state target cleavage rate” value was found to be 0.125 ± 0.015. On to GGAGAGGAUACUAUACAAGGUACUACCUCA, for which the “pre-steady-state target cleavage rate” value worked out at 0.0561 ± 0.0087.

Consider GGAGACCUAUCAAUAGAACCUACUACCUCA, for which the “pre-steady-state target cleavage rate” value was determined as 0.00291 ± 0.0028. Regarding GGAGACCUAUGAUAUCUUGCUACUACCUCA, the “pre-steady-state target cleavage rate” value is < 0.0001.

(Values after the supplement of paper PMC10338343.)
